In all, about 310,000 compounds went through this assay and about 2,200 (0.71%) showed an effect of 50% or more. The effect is printed as a negative number. The list shows a part of the results.
target: human ether-à-go-go-related gene (hERG) potassium channel (human, UniProt Q12809); assay: primary screen, population patch clamp on CHO cells stably expressing hERG
Sequence (Q12809 whole entry, looked up): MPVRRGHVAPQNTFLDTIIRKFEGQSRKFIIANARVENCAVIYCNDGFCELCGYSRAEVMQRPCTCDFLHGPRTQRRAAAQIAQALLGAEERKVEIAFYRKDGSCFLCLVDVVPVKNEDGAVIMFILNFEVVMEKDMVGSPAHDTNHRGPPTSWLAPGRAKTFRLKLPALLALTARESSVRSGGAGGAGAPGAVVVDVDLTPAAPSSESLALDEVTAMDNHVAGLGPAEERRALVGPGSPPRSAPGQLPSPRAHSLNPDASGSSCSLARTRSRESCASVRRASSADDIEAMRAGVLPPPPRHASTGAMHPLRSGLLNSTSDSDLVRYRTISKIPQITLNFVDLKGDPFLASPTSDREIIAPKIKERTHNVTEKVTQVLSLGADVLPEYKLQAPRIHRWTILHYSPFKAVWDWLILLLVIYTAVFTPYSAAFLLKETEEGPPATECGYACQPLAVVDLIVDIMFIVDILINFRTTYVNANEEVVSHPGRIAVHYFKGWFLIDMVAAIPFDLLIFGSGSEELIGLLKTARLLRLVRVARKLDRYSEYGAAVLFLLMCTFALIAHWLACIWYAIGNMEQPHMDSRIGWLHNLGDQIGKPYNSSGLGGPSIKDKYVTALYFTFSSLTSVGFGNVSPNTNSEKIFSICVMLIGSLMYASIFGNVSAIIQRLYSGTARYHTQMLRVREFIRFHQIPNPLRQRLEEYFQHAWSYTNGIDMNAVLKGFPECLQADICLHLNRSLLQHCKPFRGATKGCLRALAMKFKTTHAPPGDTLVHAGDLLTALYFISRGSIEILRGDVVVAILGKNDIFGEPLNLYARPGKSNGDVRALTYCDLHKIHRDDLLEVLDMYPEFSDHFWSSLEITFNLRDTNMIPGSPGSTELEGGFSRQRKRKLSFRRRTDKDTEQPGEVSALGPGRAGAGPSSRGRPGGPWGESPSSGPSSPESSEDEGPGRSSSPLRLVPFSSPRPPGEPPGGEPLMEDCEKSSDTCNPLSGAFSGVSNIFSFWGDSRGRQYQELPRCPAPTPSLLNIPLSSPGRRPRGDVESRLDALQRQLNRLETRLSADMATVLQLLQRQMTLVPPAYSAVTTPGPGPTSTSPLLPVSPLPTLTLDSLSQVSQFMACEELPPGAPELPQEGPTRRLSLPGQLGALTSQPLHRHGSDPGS

| SMILES | hERG current change (%, negative = inhibition) at 1uM |
| --- | --- |
| CCOc1ccc(-n2nc(C(=O)N3CCN(CC)CC3)c3ccccc3c2=O)cc1 | -1.35% |
| CON(c1nc(N(C)C)nc(N(C)C)n1)S(=O)(=O)c1ccccc1Cl | 15.5% |
| CCOC(=O)C1CCN(C(=O)CNS(=O)(=O)c2cccs2)CC1 | 7.9% |
| COc1ccc(OCC(=O)NNC(=O)C2CCN(c3ncnc4sc(C)c(C)c34)CC2)cc1 | 5.1% |
| Cc1cccc(Nc2c3c(nc4ccccc24)CCC3)c1.Cl | -30.1% |
| O=C(Cn1nnc(-c2ccccc2)n1)NC(=O)NC1CCCC1 | 14.2% |
| Cc1cc(C(=O)COC(=O)c2ccccc2O)c(C)n1Cc1cccs1 | 0.119% |
| Cc1ccc(O)c(NC(=O)c2cccc(NC(=O)c3ccco3)c2)c1 | -11.7% |
| Cc1cccc(C)c1NC(=O)CN(C)C(=O)C1CCCCC1 | 7.36% |
| CCOc1ccc2nc(Cl)c(/C=C/C(=O)c3ccco3)cc2c1 | 17.1% |
| COc1ccc(C)cc1NC(=O)CN1C(=O)CSc2ccc(S(=O)(=O)N3CCCC3)cc21 | 21.9% |
| Nc1nc(SCC(=O)NCCCN2CCOCC2)nc2sc3c(c12)CCC3 | 3.95% |
| CN(CCO)c1c2c(nc3cc(-c4cccc(F)c4)nn13)CCCC2 | -0.969% |
| O=C(NC1CCCC1)c1c[nH]c2ccc(F)cc2c1=O | 12.7% |
| C=CCn1cc(C(=O)NCc2ccco2)c(=O)c2cc(S(=O)(=O)N3CCCCCC3)ccc21 | 8.93% |
| O=S(=O)(c1cc(Cl)c(Cl)cc1Cl)N1CCN2CCCC2C1 (stereo not shown) | 19.6% |
| Cc1ccc(-n2cccc2/C=C2\C(=N)N3N=C(C(C)C)SC3=NC2=O)cc1 | 14.6% |
| CC(C)(C)c1cc(C(F)(F)F)c(C#N)c(=O)[nH]1 | 10.8% |
| Cc1ccc(C(=O)COC(=O)c2ccc3c(c2)C(=O)N(c2cccc4ncccc24)C3=O)cc1C | 4.09% |
| Cc1c(Cl)cccc1NC(=O)CSc1nnc(CCNC(=O)OC(C)(C)C)o1 | -12.4% |
| Cc1cc(C)nc(/N=C(\N)Nc2ccc(S(=O)(=O)Nc3nccc(C)n3)cc2)n1 | 19.9% |
| N#CC1=C2N=C(N)c3ccccc3N2C2=C(C(=O)CCC2)C1c1ccc(F)cc1 (stereo not shown) | 0.0442% |

| SMILES | hERG current change (%, negative = inhibition) at 1uM |
| --- | --- |
| Cc1ccc(C2C3=C(CC(C)(C)CC3=O)NC3=C2C(=O)c2ccccc23)cc1 (stereo not shown) | 14.6% |
| CC(C)(C)NC(=O)C(c1ccco1)N(C(=O)c1csnn1)c1ccccc1 (stereo not shown) | 9.09% |
| C[C@@H]1C(=O)O[C@H]2[C@H]1CC[C@@]1(C)C(=O)C=C[C@@](C)(O)[C@H]21 | 15.4% |
| Cc1cc(C)n(-c2nc(NC(C)C)nc(NC(C)C)n2)n1 | 4.83% |
| CC(CNC(=O)CCS(=O)(=O)c1ccc2c(c1)oc(=O)n2C)c1ccccc1 (stereo not shown) | 12.8% |
| CCOc1cc(/C=C2\C(=N)N3N=CSC3=NC2=O)ccc1OS(=O)(=O)c1ccccc1 | 7.28% |
| Cc1ccc(C(=O)OC(C)CN2C(C)CCCC2C)cc1.Cl (stereo not shown) | -9.8% |
| C=CCNc1nc(Cl)nc(Nc2ccc(OC)cc2)n1 | 5.46% |
| O=C(O)c1ccccc1-c1ccccc1C(=O)NNc1ccc([N+](=O)[O-])cc1 | 1.86% |
| COCCNC(=O)CN1C(=O)COc2ccc(Cl)cc21 | 14.7% |
| Cc1ccc(C2(C)NC(=O)N(CC(=O)c3ccc4c(c3)OCCO4)C2=O)cc1 (stereo not shown) | 1.5% |
| Cc1cccnc1NC(N)=S | 8.16% |
| Cc1ccc(C)c(S(=O)(=O)N2CCN(C(=O)Cn3[nH]c(=O)c4ccccc4c3=O)CC2)c1 | 14.4% |
| Cc1c(CN(C)C)c2c(n1Cc1ccccc1)C(=O)c1ccccc1-2.Cl | -79% |
| CCCCCn1c(=O)[nH]c2cc(C(=O)NCCN3CCOCC3)ccc2c1=O | 6.68% |
| c1cnc2c(c1)ccc1ncccc12 | 11.5% |
| COc1cccc2sc3ccc(NCCC4CCCN4C)cc3c(=O)c12 (stereo not shown) | 12.3% |
| COc1ccccc1NC1=CC(=O)CC(c2ccccc2)C1 (stereo not shown) | 5.44% |
| O=C1CC(O)(c2ccccc2)C(c2ccccc2)=C1c1ccccc1 (stereo not shown) | 10.8% |
| O=C(c1ccc2nc[nH]c2c1)N1CCN(S(=O)(=O)c2cccc(F)c2)CC1 | 15.3% |
| Cc1cnnc2c1-c1nonc1CC2 | 9.57% |
| O=C(CSc1nc(-c2cccs2)cc(C(F)(F)F)n1)NCc1ccco1 | 6.53% |

| SMILES | hERG current change (%, negative = inhibition) at 1uM |
| --- | --- |
| Cc1ccccc1NC(=O)c1ccc2c(c1)CCN2S(C)(=O)=O | 10.7% |
| COc1ccc(S(=O)(=O)N(C)CC(=O)Nc2ccc(C)cc2)cc1OC | -6.41% |
| Cn1cnc([N+](=O)[O-])c1C(=O)Nc1cccc([N+](=O)[O-])c1 | 2.07% |
| CC(C)/C=C1\CC/C(=C\c2cccnc2)C1=O | 7.95% |
| CCn1c(SCC(=O)Nc2cc(C)on2)nc2sc3c(c2c1=O)CCCC3 | 13.1% |
| O=C(Nc1ccc(S(=O)(=O)NCc2cccnc2)cc1)c1ccco1 | 8.59% |
| O=C(CN1CCC(n2nnc3cc(F)ccc32)CC1)Nc1ccc2c(c1)CCC2 | 1.69% |
| COc1ccc(/C=N/NC(=S)Nc2ccccc2[N+](=O)[O-])cc1O | 8.11% |
| CSc1nc(C)cc(Oc2ccc(=O)[nH]n2)n1 | 9.58% |
| O=C(c1ccccc1)c1cc2cc(Cl)ccc2[nH]1 | 5.63% |
| CN(C)C(=O)c1ccccc1Sc1cc(Cl)ccc1Cl | 4.4% |
| O=C(NCCSc1c(-c2ccccc2)[nH]c2ccccc12)c1cc2ccccc2oc1=O | 3.97% |
| COc1ccc(N2CCN(CC(=O)Nc3cc(C)on3)CC2)cc1.O=C(O)C(=O)O | 11% |
| Cc1noc(C)c1COc1ccc(C(=O)OCC(=O)Nc2cccc(S(=O)(=O)N3CCOCC3)c2)cc1 | 10.1% |
| O=C(NCCc1ccc(Cl)cc1)c1cc(-c2ccccn2)nc2ccccc12 | 17.2% |
| N#CC1(Nc2ccccc2)C(=O)Nc2ccccc21 (stereo not shown) | 0.667% |
| O=C(NCc1ccccc1)OCCN1CCN(Cc2ccccc2)CCC1=O | 3.59% |
| COC(=O)c1ccc(NC(=S)NCCCN2CCCC2=O)cc1 | 10.9% |
| CCOC(=O)C1=C(c2ccccc2)Nc2ncnn2C1c1ccc(O)cc1 (stereo not shown) | 3.62% |
| Fc1cccc(-n2c(-c3ccco3)nc3nc4ccccc4nc32)c1 | 11.6% |
| O=C(COC(=O)c1ccccc1F)c1ccc(-n2nncc2-c2ccco2)cc1 | 9.03% |
| Cc1cccc(NC(=O)CSc2nnc(C3CC3)n2CC2CCCO2)c1C (stereo not shown) | 16% |

| SMILES | hERG current change (%, negative = inhibition) at 1uM |
| --- | --- |
| COc1ccc(S(=O)(=O)NCCN2CCOCC2)cc1Br | 21% |
| CCOC(=O)N1CCC(Nc2c(-c3ccc(C)cc3)c(=O)c2=O)CC1 | 1.74% |
| S=C1NCN(C2CCCCC2)CN1CCc1ccccc1 | 12.5% |
| COc1ccc(Cn2ccc(=O)c(Cc3c(Cl)cccc3Cl)c2C)cc1 | 8.07% |
| O=C(c1ccc(F)cc1)N1CCCCC(S(=O)(=O)c2ccccc2)C1=O (stereo not shown) | 19.3% |
| CC(=C/c1ccccc1)/C=N/NC(=O)c1ccc2nc[nH]c2c1 | 6.11% |
| O=C(NNC(=O)c1c(O)c2ccccc2[nH]c1=O)c1ccccc1 | 16.8% |
| O=C(Nc1nnc(C2CC2)s1)c1cc([N+](=O)[O-])ccc1N1CCCCC1 | -7.51% |
| Nc1c(/C=C2/C=CC(=O)C(O)=C2)c(=O)nc2sc(CC(=O)N3CCCCC3)nn12 | 19% |
| O=C(NC(O)C(=O)c1cccs1)c1cccnc1 (stereo not shown) | 11.3% |
| Cc1ccc([C@@H]2[C@@H]3C(=O)N(C)C(=O)[C@@H]3[C@]3(C)C(=O)N(Cc4ccccc4)CC(=O)N23)o1 | 13.7% |
| Cc1nn(Cc2cccc(C(N)=O)c2)c(C)c1Br | 1.47% |
| Cc1ccccc1-c1nc(CS(=O)(=O)CC(=O)NCCN2CCOCC2)c(C)o1 | 7.93% |
| O=C(Nc1ccc2ccccc2c1)Nc1ccc2snnc2c1 | 1.89% |
| CCOC(=O)c1ccc(-n2c(CN3CCOCC3)nc3ccc([N+](=O)[O-])cc3c2=O)cc1 | 5.65% |
| O=C(O)/C=C\C(=O)Nc1ccc(Oc2ccc(Br)cc2)cc1 | 12.1% |
| Cc1noc(C(=O)NC2CCCCC2)c1Cl | 6.82% |
| CO/N=C(/CS(=O)(=O)Cc1ccccc1Cl)c1ccc(Cl)cc1Cl | 2.6% |
| Cc1nn(CC(=O)NCc2ccc(OC(C)C)cc2)c(=O)c2cc3occc3n12 | 12.9% |
| C=CCn1c(=O)c(C(=O)Nc2cc(C)ccn2)c(O)c2ccccc21 | 12.1% |
| COc1ccc(OCCC(=O)OCC(=O)NCc2ccco2)cc1 | 11.2% |
| COc1ccc(CNc2nc3ccccc3n2C(C)C)cc1 | 1.77% |
